# Data reported in the supplement of paper PMC5919970.
# Where a name gives a salt, the structure may show the parent alone. The full ranking holds about 2,000 compounds; the median of “fractional viability relative to vehicle” is about 0.91, and the lowest 2% start at about 0.045. The list shows a part of the results.
# Test system: TYKNU
# Experiment: fractional viability relative to vehicle; TYKNU is a high-grade serous ovarian cancer line; higher = less growth inhibition
# Details: 72 h
# In short: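 TYKNU control cells or lentiCRISPRv2 knockout derivatives were seeded at 500 cells per well into drug-stamped 384-well plates holding a ~2100-compound library at 2 or 10 μM, in duplicate. Cells were grown at 37 °C in 5% CO2 in RPMI 1640 with 10% FBS, and drug treatment lasted 72 h. Viability was read by Cell Titer Glo luminescence. Duplicate treatment wells were averaged and normalised to duplicate control wells from the same plate position.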
# [1] = 2uM, genotype: DNM1L knockout (sgDNM1L #1)
# [2] = 2uM, genotype: sgCTRLA1 (non-targeting control)
# [3] = 10uM, genotype: DNM1L knockout (sgDNM1L #1)
# [4] = 10uM, genotype: sgCTRLA1 (non-targeting control)
Structure (SMILES),fractional viability [1],fractional viability [2],fractional viability [3],fractional viability [4]
CCOc1ccc2nc3cc(N)ccc3c(N)c2c1 [Ethacridine lactate monohydrate],0.688,0.997,0.152,0.436
O=C1NC(=O)/C(=C/c2ccc3c(c2)OC(F)(F)O3)S1,0.955,1.1,0.763,1.02
CCOc1ccccc1OC(c1ccccc1)C1CNCCO1 (stereo unspecified) [Reboxetine mesylate],1.04,1.08,0.808,0.947
O=c1[nH]cnc2c1ncn2[C@@H]1O[C@H](CO)[C@@H](O)[C@H]1O [Inosine],1.07,1.01,1.05,1.06
COc1cc([C@@H]2c3cc4c(cc3[C@@H](O[C@@H]3O[C@@H]5CO[C@@H](c6cccs6)O[C@H]5[C@H](O)[C@H]3O)[C@H]3COC(=O)[C@H]23)OCO4)cc(OC)c1O [Teniposide],0.234,0.195,0.0825,0.0721
O=c1ccc2ccccc2o1 [Coumarin],0.708,0.897,0.743,0.91
Nc1nc(=S)c2ncn([C@H]3C[C@H](O)[C@@H](CO)O3)c2[nH]1,0.812,0.572,0.453,0.247
Cc1nc(-c2cccnc2)sc1C(=O)Nc1ccccc1-c1cn2c(CN3CCOCC3)csc2n1,0.821,0.932,0.858,0.78
CN(C)CCCN1c2ccccc2Sc2ccc(Cl)cc21 [Chlorpromazine HCl],0.95,1.11,0.537,0.819
C[C@H](Nc1ncnc2[nH]cnc12)c1cc2ccc(F)cc2nc1-c1ccccn1,0.749,0.808,0.828,0.615
Nc1ccc(C(=O)Nc2cccc(-c3nc(N4CCOCC4)c4oc5ncccc5c4n3)c2)cn1,0.518,0.435,0.208,0.21
Cn1cc(-c2ccncc2)c(-c2ccc(OCc3ccc4ccccc4n3)cc2)n1,1.2,0.984,1.01,0.851
O=C(O)[C@H]1O[C@@H](Oc2cc3oc(-c4ccccc4)cc(=O)c3c(O)c2O)[C@H](O)[C@@H](O)[C@@H]1O [Baicalin],0.98,1.26,0.502,0.755
C=CC(=O)Nc1ccc(CN2C(=O)N(c3cc(OC)cc(OC)c3)Cc3cnc(Nc4ccc(N5CCN(C)CC5)cc4)nc32)cc1,0.926,0.803,0.0593,0.0423
Cc1cc(C)c(S(=O)(=O)n2cc(C)cc2C)c(C)c1,0.788,0.862,0.757,0.765
Cc1[nH]c2ccccc2c1CCNCc1ccc(/C=C/C(=O)NO)cc1 [Panobinostat (LBH589)],0.0758,0.104,0.0944,0.113
c1cncc(CN2CCC(n3ncc4c(N5CCOCC5)nc(-c5ccc6[nH]ccc6c5)nc43)CC2)c1,0.817,0.497,0.145,0.128
COC1CCN(C(=O)c2cc(Cc3n[nH]c(=O)c4ccccc34)ccc2F)CC1,0.8,0.94,0.578,0.83
CCCCN1CCCCC1C(=O)Nc1c(C)cccc1C (stereo unspecified) [Bupivacaine HCl],0.856,1.11,0.92,0.924
CCOC(=O)c1[nH]c2cc(Cl)ccc2c1C(C(=O)NC(C)(C)C)N(C=O)Cc1ccc(Cl)cc1 (stereo unspecified),0.658,0.864,0.399,0.463

Structure (SMILES),fractional viability [1],fractional viability [2],fractional viability [3],fractional viability [4]
Cc1ccc2c(=O)c3cccc(CC(=O)O)c3oc2c1C [DMXAA (Vadimezan)],0.966,1.06,1.04,1.04
C[C@H]1O[C@@H](Oc2c(-c3cc(O)c(O)c(O)c3)oc3cc(O)cc(O)c3c2=O)[C@@H](O)[C@@H](O)[C@@H]1O [Myricitrin],0.93,1.29,0.801,1.07
C=C1/C(=C\C=C2/CCC[C@]3(C)[C@@H]([C@H](C)/C=C/[C@H](C)C(C)C)CC[C@@H]23)C[C@@H](O)C[C@@H]1O [Doxercalciferol],0.853,1.15,0.387,0.676
Cc1nc(-c2ccc(OCC(C)C)c(C#N)c2)sc1C(=O)O [Febuxostat],0.939,1.22,0.921,1.1
CC(C(=O)O)c1ccc2c(c1)CC(=O)c1ccccc1S2 (stereo unspecified) [Zaltoprofen],1.16,1.11,0.907,1.09
Oc1cc2c(cc1O)[C@@H]1c3ccc(O)c(O)c3OC[C@]1(O)C2 [Hematoxylin],0.878,1.11,0.861,0.977
CN(C)c1ccc(C(=C2C=CC(=[N+](C)C)C=C2)c2ccc(N(C)C)cc2)cc1 [Crystal Violet],0.133,0.121,0.0375,0.0133
COc1ccc(CC2c3cc(OC)c(OC)cc3CC[N+]2(C)CCC(=O)OCCCCCOC(=O)CC[N+]2(C)CCc3cc(OC)c(OC)cc3C2Cc2ccc(OC)c(OC)c2)cc1OC (stereo unspecified) [Atracurium Besylate],1.07,1.01,0.947,0.843
CC(=O)[C@H]1CC[C@H]2[C@@H]3CC=C4C[C@@H](O)CC[C@]4(C)[C@H]3CC[C@]12C [Pregnenolone],1.03,1.1,0.754,0.925
CCN1CCN(Cc2ccc(-c3cc4c(N[C@H](C)c5ccccc5)ncnc4[nH]3)cc2)CC1,0.943,0.995,0.305,0.202
CCOC(=O)c1c(CSc2ccccc2)n(C)c2cc(Br)c(O)c(CN(C)C)c12 [Arbidol HCl],0.913,1.07,0.611,0.645
Cc1nc(Nc2ncc(C(=O)Nc3c(C)cccc3Cl)s2)cc(N2CCN(CCO)CC2)n1 [Dasatinib],0.4,0.555,0.28,0.223
Cc1cc(Nc2nc(N[C@@H](C)c3ccc(F)cc3)c(C#N)cc2F)n[nH]1,0.489,0.626,0.508,0.533
CC(C)C[C@H](NP(=O)(O)O[C@@H]1O[C@@H](C)[C@H](O)[C@@H](O)[C@H]1O)C(=O)N[C@@H](Cc1c[nH]c2ccccc12)C(=O)O [Phosphoramidon Disodium Salt],0.791,0.943,0.793,0.773
COc1ccc(-c2ccc3c(N4CCOC[C@@H]4C)nc(N4CCOC[C@@H]4C)nc3n2)cc1CO,0.177,0.193,0.204,0.198
COc1ccc2c(c1)CCC1C2CCC2(C)C(NCCCCCCN3C(=O)C=CC3=O)CCC12 (stereo unspecified),0.849,0.972,0.942,0.781
COc1nccc(-c2c(-c3ccc(F)cc3)ncn2C2CCC(O)CC2)n1 (stereo unspecified),0.794,0.963,0.687,0.677
CN[C@@H](C)C(=O)N[C@H](C(=O)N1CCC[C@H]1c1nc(C(=O)c2ccc(F)cc2)cs1)C1CCCCC1,0.688,1.07,0.476,0.923
Cc1c(C(=O)Nc2ccc(Oc3ccnc4[nH]cc(-c5ccccc5)c34)c(F)c2)c(=O)n(-c2ccc(F)cc2)n1C,0.717,0.956,0.488,0.619
COc1c(C)c(C(=O)c2ccc(N)c(C(=O)O)c2)n2ccccc12,0.816,1.14,0.752,1.08

Structure (SMILES),fractional viability [1],fractional viability [2],fractional viability [3],fractional viability [4]
CC(=O)Oc1ccccc1C(=O)Nc1ncc([N+](=O)[O-])s1 [Nitazoxanide],1.25,1.17,1.05,0.91
NC(=O)c1ccc(N(C(N)=O)c2c(F)cccc2F)nc1-c1ccc(F)cc1F,0.752,1.04,0.828,0.984
CCCc1cc(C)[nH]c(=O)c1CNC(=O)c1cc(-c2ccc(N3CCN(C(C)C)CC3)nc2)cc2c1cnn2C(C)C,0.75,1.03,0.122,0.113
COc1ccc([C@@H]2CC(=O)c3c(O)cc(O)cc3O2)cc1O [Hesperetin],1.03,1.02,1.02,1.13
Nc1c(CC(=O)O)cccc1C(=O)c1ccccc1 [Amfenac Sodium Monohydrate],0.897,1.03,0.931,1.03
CC(C)(C)C(=O)Nc1ccc2c(c1)C(=O)C(=O)c1ccccc1-2,0.175,0.0968,0.0236,0.0127
O=C(Nc1cccc(Cl)c1)c1ccccn1,1.06,1.05,0.971,1.12
N#Cc1ccc(C(c2ccc(C#N)cc2)n2cncn2)cc1 [Letrozole],0.954,1,0.827,0.857
C[C@@]1(C(=O)Nc2ccc(F)nc2)CCCN1c1nc(Nc2cc(C3CC3)n[nH]2)c2cccn2n1,0.561,0.689,0.282,0.252
Clc1ccc(CCC(Cn2ccnc2)Sc2c(Cl)cccc2Cl)cc1 (stereo unspecified) [Butoconazole nitrate],1.01,0.973,0.723,0.846
CN(C)C(=O)Nc1cccc(-c2ccc(N(C)C)cc2)c1 [Atglistatin],0.804,0.95,0.875,0.769
CN1CCN(C2=Nc3ccccc3Oc3ccc(Cl)cc32)CC1 [Loxapine Succinate],1,1.05,0.619,1.02
CC(C)CC(N)=O [Isovaleramide],1.06,1.19,1.05,1.15
COc1c2occc2cc2ccc(=O)oc12 [Methoxsalen],0.944,1.16,0.944,1.22
N=C(NCCCCCCNC(=N)NC(=N)Nc1ccc(Cl)cc1)NC(=N)Nc1ccc(Cl)cc1 [Chlorhexidine HCl],1.16,0.839,0.0803,0.102
CCOC(=O)[C@@H](N)Cc1ccc(-c2cc(O[C@H](c3ccc(Cl)cc3-n3ccc(C)n3)C(F)(F)F)nc(N)n2)cc1 [Telotristat Etiprate (LX 1606 Hippurate)],0.777,1.1,0.0468,0.12
c1ccc(NCc2ccc(CNc3ccccn3)cc2)nc1,1.2,1.19,1.02,1.03
CN1CCN(Cc2ccc(Nc3ncc(Cl)c(Nc4ccccc4S(=O)(=O)N(C)C)n3)cc2)CC1,0.22,0.229,0.234,0.18
COC(=O)c1ccc2c(c1)nc(NC(=O)c1ccccc1)n2CCCc1ccccc1,0.818,1.05,0.384,0.417
